For one assay, the system named is A. baumannii. The experiment in a line: MIC by broth microdilution (CLSI), panel of 60 A. baumannii clinical isolates (Example 1). For orientation: In broth dilution the organism is exposed to a series of concentrations in liquid medium.
Assay [1] relates to A. baumannii isolate containing OXA-94, OXA-23, and AmpC (ARC5081). The experiment in a line: microbe, parasite or virus in culture. The format is cell-based. Particulars: Acinetobacter baumannii.
The test system is the same in assay [2]. The format is cell-based, Acinetobacter baumannii. To be noted: compound 1 added to sulbactam/imipenem regimen (Cmax 10 μg/mL QID); compound 1 Cmax as low as 2 μg/mL; no evidence of regrowth by 24 hours.
[3] abbreviates: Acinetobacter baumannii, strain ARC2059, PSE-2, PSE-1.
The mark [4] stands for this setting: Acinetobacter baumannii, strain ARC2582, OXA*.
Setting [5] is: Acinetobacter baumannii, strain ARC2597 (A. baumannii/calcoaceticus complex), OXA*.
[6] abbreviates: Acinetobacter baumannii, strain ARC2719, OXA*.
Where [7] appears, read: Acinetobacter baumannii, strain ARC2720 (A. baumannii/calcoaceticus complex), OXA*.
The mark [8] stands for this setting: Acinetobacter baumannii, strain ARC2728 (A. baumannii/calcoaceticus complex), OXA*.
Setting [9] is: Acinetobacter baumannii, strain ARC5090, OXA*.

Here are results for seven compounds from patent publication US10376499B2, “Combination therapy for treatment of resistant bacterial infections” (priority 2014, dated 2019).

≈ marks a conversion by molar mass, not a printed value. Counter-ions that a name gives are not always drawn.

Turning to `CN(C)[C@@H]1C(O)=C(C(N)=O)C(=O)[C@@]2(O)C(O)=C3C(=O)c4c(O)cccc4[C@@](C)(O)[C@H]3C[C@@H]12` [TET, tetracycline], the MIC with A. baumannii (setting [3]) was 4 µg/mL (≈ 9 µM); with A. baumannii (setting [4]), 2 µg/mL (≈ 4.5 µM); in the assay with A. baumannii (setting [5]) it was 1 µg/mL (≈ 2.25 µM); in the assay on A. baumannii (setting [6]), 2 µg/mL (≈ 4.5 µM); with A. baumannii (setting [7]) it was 2 µg/mL (≈ 4.5 µM); in the assay with A. baumannii (setting [8]), 1 µg/mL (≈ 2.25 µM). This compound registered an MIC against A. baumannii (setting [9]) of 2 µg/mL (≈ 4.5 µM).

For the compound `C[C@@H](O)[C@H]1C(=O)N2C(C(=O)O)=C(S[C@@H]3CN[C@H](C(=O)N(C)C)C3)[C@H](C)[C@H]12` [Meropenem, meropenem], the MIC in the assay on A. baumannii (setting [3]) was 0.5 µg/mL (≈ 1.3 µM); with A. baumannii (setting [4]), 0.25 µg/mL (≈ 0.652 µM); in the assay with A. baumannii (setting [6]), 0.25 µg/mL (≈ 0.652 µM); in the assay on A. baumannii (setting [7]) it was 1 µg/mL (≈ 2.61 µM); in the assay on A. baumannii (setting [8]), 0.25 µg/mL (≈ 0.652 µM); against A. baumannii (setting [9]), 0.25 µg/mL (≈ 0.652 µM).

As to gentamycin, the MIC against A. baumannii (strain ARC2719, OXA*) is 0.5 µg/mL; in the assay with A. baumannii (strain ARC2720 (A. baumannii/calcoaceticus complex), OXA*) it was 0.5 µg/mL; in the assay on A. baumannii (strain ARC2728 (A. baumannii/calcoaceticus complex), OXA*), 0.25 µg/mL.

In assay [1], `C[C@@H](O)[C@H]1C(=O)N2C(C(=O)O)=C(SCCNC=N)C[C@H]12` [Imipenem, (5R,6S)-3-[[2-(formimidoylamino)ethyl]thio]-6-[(R)-1-hydroxyethyl]-7-oxo-1-azabicyclo[3.2.0]hept-2-ene-2-carboxylic acid] showed an MIC of 16 µg/mL (≈ 53.4 µM).

On to `C[C@H]1COc2c(N3CCN(C)CC3)c(F)cc3c(=O)c(C(=O)O)cn1c23` [LEVO, levofloxacin], for which the values for the MIC against A. baumannii (setting [3]), in the assay with A. baumannii (setting [5]) and in the assay with A. baumannii (setting [7]) were above 32 µg/mL, below 0.03 µg/mL and 2 µg/mL (≈ 5.53 µM), respectively.

As for `CC1(C)[C@H](C(=O)O)N2C(=O)C[C@H]2S1(=O)=O` [Sulbactam, (2S,5R)-3,3-dimethyl-7-oxo-4-thia-1-azabicyclo[3.2.0]heptane-2-carboxylic acid 4,4-dioxide], the MIC was 8 µg/mL (≈ 34.3 µM) in assay [1]; 1 µg/mL (≈ 4.29 µM) in the assay with A. baumannii (setting [4]); 1 µg/mL (≈ 4.29 µM) in the assay with A. baumannii (setting [5]); 2 µg/mL (≈ 8.57 µM) with A. baumannii (setting [6]); 2 µg/mL (≈ 8.57 µM) in the assay on A. baumannii (setting [7]); 2 µg/mL (≈ 8.57 µM) in the assay on A. baumannii (setting [8]). Besides, in the assay with A. baumannii (setting [9]), the MIC stood at 2 µg/mL (≈ 8.57 µM).

On to `CC1=C[C@@H]2CN(C(=O)N2OS(=O)(=O)O)[C@@H]1C(N)=O` [Compound 1, (2S,5R)-2-carbamoyl-3-methyl-7-oxo-1,6-diazabicyclo[3.2.1]oct-3-en-6-yl hydrogen sulfate], for which the MIC in assay [1] is 128 µg/mL. Moreover, the “bacterial response (bacterial burden timecourse)” value in assay [2] is “rapid and cidal response”.
